Results: the antibiotic and cytotoxicity screens of Wong et al. (2023)
Some of the results follow.

Experiments:
[1] = test system: HSkMC (human skeletal muscle cells); experiment: cytotoxicity call (relative viability < 0.9); conditions: 10 µM
[2] = test system: HepG2; experiment: cytotoxicity call (relative viability < 0.9); conditions: 10 µM
[3] = test system: S. aureus RN4220; experiment: growth inhibition call (relative growth <= 0.2); conditions: 50 µM

| SMILES | cytotoxicity call [1] | cytotoxicity call [2] | growth inhibition call [3] |
| --- | --- | --- | --- |
| C[C@H]1CCCCO[C@@H](CN(C)C(=O)Nc2cccc3ccccc23)[C@@H](C)CN([C@@H](C)CO)C(=O)c2cc(NS(=O)(=O)c3ccccc3)ccc2O1 | inactive | inactive | inactive |
| C[C@H](CO)N1C[C@H](C)[C@@H](CN(C)Cc2ccc(C(F)(F)F)cc2)Oc2ccc(NC(=O)CCCCCC(=O)Nc3ccccc3N)cc2C1=O | inactive | inactive | inactive |
| C[C@@H]1CN([C@H](C)CO)C(=O)CCCn2cc(nn2)CO[C@H]1CN(C)S(=O)(=O)c1ccc(-n2cccn2)cc1 | inactive | inactive | inactive |
| C[C@@H]1CN([C@H](C)CO)C(=O)Cc2cc(NS(=O)(=O)c3ccc(F)cc3)ccc2O[C@H]1CN(C)S(=O)(=O)c1ccccc1 | inactive | inactive | inactive |
| C[C@@H]1CN([C@H](C)CO)C(=O)c2cc(NS(=O)(=O)c3cn(C)cn3)ccc2O[C@@H]1CN(C)Cc1ccc(C(=O)O)cc1 | inactive | inactive | inactive |
| O=C(O)c1cc(O)c(O)c(O)c1 | active | inactive | inactive |
| C[C@@H]1CN([C@H](C)CO)S(=O)(=O)c2ccc(C#CCN(C)C)cc2O[C@H]1CN(C)Cc1ccc2c(c1)OCO2 | inactive | inactive | inactive |
| COc1ccccc1CNC(=O)C[C@@H]1C[C@@H]2c3cc(NS(=O)(=O)c4ccc(F)cc4)ccc3O[C@@H]2[C@H](CO)O1 | inactive | inactive | inactive |
| O=C1OCCC=C[C@H]2O[C@@]34C=CCN(c5ccc6ccccc6c5)C(=O)[C@H]3N(CCCCCO)C(=O)[C@@H]4[C@@H]12 | inactive | inactive | inactive |
